According to PubChem BioAssay AID1508624 (National Center for Advancing Translational Sciences (NCATS), 2021):
Among all 48,000 compounds or so, about 120 (0.25%) were called active. Roughly 4% stayed inconclusive and do not appear here. Calls follow the shape of the dose curve; as a rule, active = well fitted activation curve with a large enough effect; inconclusive = small, poorly fitted or top-dose-only effect, or another doubt; inactive = no such curve, though single readings can be large or run the other way. This is one part of the list.

test: Primary qHTS for Identification of Small Molecule Activators of Huntingtin-Antisense Promoter Activity; conditions: HEK293 HTT-AS promoter firefly luciferase reporter, 24 h; series mostly up to 57.5 µM; activity change, positive = activation: at the top concentration; also: nearly all actives have a fitted effect of over 55% in size
Summary of the method: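 Firefly luciferase readout (Dual-Glo, 10 min RT) after 24 h, 37 °C compound exposure (final up to 57.5 uM) of HEK293 reporter cells cultured 24 h beforehand; PTC124 at 50 uM final as control inhibitor; activity scaled vehicle 0%, zero RLU -100%.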

Activity change, positive = activation, inactive:
Cc1ccc(C)c(N2CCN(C(=O)c3cc(C)nc4c3c(C)nn4-c3cccc(F)c3)CC2)c1 -25.3%, Cc1ccc(C)c(N2CCN(c3ccc4cc(S(=O)(=O)N5CCC(C)CC5)ccc4n3)CC2)c1 -4.49%, CCOc1ccc(C(=O)NCCc2sc(-c3ccc(OC)c(OC)c3)nc2C)cc1 -0.146%, Cc1ccccc1OCC(=O)Nc1sc2c(c1C(=O)OC(C)C)CCCC2 9.45%, CCn1c(C(=O)NCc2ccc(OC(C)C)cc2)cc2oc3ccccc3c21 -32.3%, CCOc1ccc(-n2c(SCC(=O)N3CCC(C)CC3)nc3c([nH]c4ccccc43)c2=O)cc1 -13.2%, Cc1cccc(-n2c(=O)c3c(c4cc(C)ccc4n3C)n(CC(=O)NCC3CCCO3)c2=O)c1 (stereo not drawn) -8.29%, CCCOc1ccc(C(=O)Nc2cc3c(cc2N2CCOCC2)n(C)c(=O)n3C)cc1 -12.2%, Cc1oc(-c2cccc(Cl)c2)nc1CS(=O)(=O)CC(=O)NCc1ccccc1Cl -18.3%, Cc1ccc2c(c1)c(=O)c1ccccc1n2CCCC(=O)Nc1cc(Cl)ccc1C -18.6%, CCCCCCCCCCCCOCCO 0.0549%, COC(=O)c1ccc(C2c3c(oc4ccccc4c3=O)C(=O)N2c2nc(C)c(C(=O)OC)s2)cc1 (stereo not drawn) -7.23% [at 11.5 µM, percent change from vehicle, -100% = no light], O=C(Nc1cc(Cl)cc(Cl)c1)c1ccc2c(c1)N(Cc1cccc(Cl)c1)C(=O)c1ccccc1S2=O (stereo not drawn) -13.7%, Cc1nn(CC(=O)O)c(=O)c2cc3cc(F)ccc3n12 -2.08%, COc1ccc2c(CNCc3cccs3)c(C(=O)O)n(Cc3ccc(C)cc3)c2c1 -15.9%, Cc1ccccc1Cn1c2ccccc2c2cnn(CC(=O)NC(C)CCc3ccccc3)c(=O)c21 (stereo not drawn) -21.7%, CCc1ccc2oc(C(=O)Nc3c(C)n(C)n(-c4ccccc4)c3=O)cc(=O)c2c1 -6.44% [at 11.5 µM, percent change from vehicle, -100% = no light], N#Cc1ccc(C(=O)NCc2ccc3c(c2)CCN3C(=O)c2ccc(F)cc2)cc1 3.78%, CCOC(=O)c1ccc(N2C(=O)c3n[nH]c(C)c3C2c2ccccc2OC)cc1 (stereo not drawn) -31.5%, Cc1cccc(CCNc2ncnc3onc(-c4ccc(Cl)cc4)c23)c1 -41.1%, COC(=O)c1ccc(NC(=O)CN(CCc2ccccc2)S(=O)(=O)c2ccc(OC)cc2)cc1 -47.8%, Cc1cccc(Cn2nc(C)n3c(cc4cc(C)ccc43)c2=O)c1 -1.7%, Cc1nn(C)c2c1c(C(F)(F)F)cc(=O)n2CC(=O)NCCC(C)C -6.52%, Cc1cccc(-c2nc3scc(CCNS(=O)(=O)c4ccc(Oc5ccccc5)cc4)n3n2)c1 -47%, COc1ccc(-c2cc3ccc(O)c(CN4CCC(C)CC4)c3oc2=O)cc1 -14%, O=C(Nc1ccc2oc(-c3cccnc3)nc2c1)c1ccc(-c2ccccc2OC(F)(F)F)o1 -29.8%, COc1ccc(-n2nc(C(=O)Nc3cc(OC)c(OC)c(OC)c3)c(=O)n(C)c2=O)cc1 3.12%, COc1ccc(-n2nc(C(=O)N3CCN(c4ccc(F)cc4)CC3)c3c4ccccc4n(C)c3c2=O)cc1 0.214%, CC1=C(c2ccc(C)cc2)S(=O)(=O)NC1=NCCCN1CCN(c2ccccc2F)CC1 -24.2%, COc1ccc(C2CC(c3ccccc3)=NN2c2ccc(S(N)(=O)=O)cc2)cc1 (stereo not drawn) -19.2%, CN1CCN(c2c(F)cc3c(=O)c(C(=O)O)cn4c3c2SCC4)CC1 -11.3%, COc1ccc(NC(=O)Cn2c(=O)n(Cc3nc(-c4ccccc4)no3)c(=O)c3cc4c(cc32)OCO4)c(OC)c1 -3.51%, Cc1nn(CC(=O)NCc2ccc(Cl)cc2)c(=O)c2cc3sccc3n12 -22%, O=C(Nc1ccc2oc(-c3cccnc3)nc2c1)c1ccc(Br)cc1 -7.44%, Cc1ccc(CN2CCCn3nc(C(=O)NC(C)C)cc3C2=O)cc1 20.9%, CC(=O)c1ccc(NC(=O)C2Cc3ccccc3N2C(=O)c2ccccc2)cc1 (stereo not drawn) 3.53%, Cc1ccc(N2CCN(S(=O)(=O)c3cc(C(=O)Nc4cc(Cl)cc(Cl)c4)ccc3F)CC2C)cc1 (stereo not drawn) -34%, CC(=O)Nc1nonc1-c1nnc(SCC(=O)Nc2cccc(F)c2)n1-c1ccccc1 -17.4%, COC(=O)c1scc(-c2ccc(C)cc2)c1S(=O)(=O)Nc1ccc(F)cc1F -24.4%, CN(C)S(=O)(=O)c1ccc2c(c1)N(CC(=O)NCc1ccc(F)cc1)C(=O)CS2 9.03%, COc1ccc(C)cc1NC(=O)Cn1c(=O)c(C(F)(F)F)nc2ccccc21 3.77%, COc1ccc(Oc2c(C(F)(F)F)oc3c(CN4CCCC(C)C4)c(O)ccc3c2=O)cc1 (stereo not drawn) -30.7%, COc1ccccc1N1CCN(c2ccc(=O)n(CC(=O)NCc3ccc(OC(C)C)cc3)n2)CC1 -19.7%, Cc1ccc(NC(=O)Cn2cc3c(n2)CCCC3)c(Cl)c1 0.0366%, CNc1c2c(nn1C)CCCC2 -8.2%, O=C(Nc1ccc(Br)cc1)c1ccc(F)c(S(=O)(=O)N2CCCc3ccccc32)c1 -44.9%, CC(C)Cn1c(=O)c2sccc2n2c(CCCC(=O)NCCc3ccc(Cl)cc3)nnc12 -21.4%, CCc1ccc(NC(=O)CSc2nc(-c3ccccc3Cl)nc3c2Cc2c(CO)cnc(C)c2O3)cc1 10.4%, COc1ccc(OCC(=O)Nc2ccc3c(c2)nc(CCNC(=O)c2ccco2)n3C)cc1 -23.2%, CC(C)NC(=O)c1ccc(-n2c(-c3ccccc3)cc3c2CCCC3)cc1 -1.28%, COCCOc1ccc2c(c1)ncn2-c1ccc2cccc(N3CCC(N)CC3)c2n1 -3.34%, CCc1ccc2nc(N(Cc3cccnc3)C(C)=O)sc2c1 3.16%, CCOC(=O)c1ccc(CN(Cc2ccc(Cl)cc2Cl)S(=O)(=O)c2ccc(F)c(C)c2)cc1 -26.9%, COc1ccc(C2CC(=O)N(Cc3ccc(F)cc3)c3ccccc3S2)cc1OC (stereo not drawn) -15.5%, COc1ccc(OC)c2sc(N3CCN(C(=O)c4ccc5c(c4)CCCC5)CC3)nc12 -13.1%, CCC1CCc2nc3sc(C(=O)Nc4ccc(C)cc4)c(N)c3cc2C1 (stereo not drawn) -3.09%, CCCCCn1c(=O)[nH]c2cc(C(=O)NCc3ccc(Cl)cc3)ccc2c1=O -9.59%, COc1ccccc1C(=O)NCCn1cc(SCc2ccc(C)cc2)c2ccccc21 -31.5%, c1ccc(N2CCN(Cc3cccn3-c3nnc(N4CCN(C5CCCCC5)CC4)s3)CC2)cc1 -2.55%, CCc1ccccc1NS(=O)(=O)c1ccc2c(c1)CCN2C(=O)C1CC1 -14.9%, CCc1ccc(-c2nn(CC(=O)NC3CCCCC3)c3c2cnc2ccc(C)cc23)cc1 1.84%, O=C(CN1CCN(Cc2cccc(Cl)c2)C1=O)NCc1ccc(F)cc1 -15.3%, CCN(c1ccccc1C)S(=O)(=O)c1ccc(N2CCCCS2(=O)=O)cc1 -5.32%, CCOc1ccc(CCNC(=O)c2nn(-c3ccc(OC)c(Cl)c3)c(=O)c3c2c2ccccc2n3C)cc1OCC -6.17%, Cc1nn(-c2ccccc2)c(-n2cccc2)c1C(=O)NCCc1ccc(Cl)cc1 -34.4%, Cc1cc(NC(=O)COCc2cc(-c3ccc(F)cc3)on2)ccc1Br -3.77%, O=C(CCCCn1c(=O)c2ccccc2n(Cc2ccccc2Cl)c1=O)NCc1ccc2c(c1)OCO2 -16.9%, COC(=O)C1=C(C)NC(C)=C(C(=O)OCC(C)C)C1c1ccccc1[N+](=O)[O-] (stereo not drawn) -2.16%, CCOc1ccc(CCNS(=O)(=O)c2c(C)nc3scc(C)n3c2=O)cc1OCC -12.3%, CCCn1c2ccccc2c2cnn(CC(=O)N3CCN(c4ccccc4F)CC3)c(=O)c21 0.0685%, Cc1ccc(Nc2c(-c3ccc(Cl)cc3)nc3sccn23)c(C)c1 -19.5%, COc1cccc(N2CCN(C(=O)CCCn3c(=O)[nH]c4ccc(Br)cc4c3=O)CC2)c1 -47.4%, CCOc1ccc(CNC(=O)c2ccc3nc(CC)c(CC)nc3c2)cc1 14%, CC(C)Oc1cccc(C(=O)Nc2ccc3oc(-c4cccc(Cl)c4)nc3c2)c1 3.54%, Cc1ccc(C)c(NC(=O)N2CCC(CN3CCOCC3)CC2)c1 0.74%, COc1ccc(OC)c(CNS(=O)(=O)c2ccc3[nH]c4c(c3c2)CCCCC4)c1 -48.7%, O=c1ccc2cc(S(=O)(=O)NCc3ccc(Br)cc3)ccc2[nH]1 -27.4%, CCC(=O)N1CCc2cc(S(=O)(=O)NC(CC(C)C)C(=O)NCCc3cccc(C)c3)ccc21 (stereo not drawn) 3.2%, COc1cccc(NC(=O)CSCc2cc(=O)c3ccc(C)c(C)c3[nH]2)c1 -16.7%, COCCn1c2c([n+](Cc3cnccn3)c1C)C(=O)c1ccccc1C2=O -94.5%, Cn1c(=O)c2c(n3c4ccccc4nc13)NC(=O)CC2c1cccc(F)c1 (stereo not drawn) -1.76%, Cc1nn2c(=O)cc(COC(=O)c3cccc(NC(=O)COc4ccccc4Cl)c3)nc2s1 -12.4%, Cc1ccc(C(=O)c2cn(Cc3cccc(C)c3)c3nc(C)ccc3c2=O)cc1 -17.4%, COc1ccc(NC(=O)Cn2c(=O)n(-c3ccccc3)c(=O)c3c4c(sc32)CCCC4)c(OC)c1 -7.97%, Cc1ccc(NC(=O)CSc2ncc(S(=O)(=O)c3ccc(C(C)C)cc3)c(=O)[nH]2)cc1C -15.4%, CC(C)Oc1ccc(CNS(=O)(=O)c2ccc3c(c2)C(C)(C)C(=O)N3C)cc1 -15.3%, Cc1ccc(CNC(=O)c2nc(SCc3ccc(F)cc3)ncc2Cl)cc1 -23%, COc1ccc(S(=O)(=O)n2nc(C)c(S(=O)(=O)N3CCCCCC3)c2C)cc1 -6.85%, Cc1cc(C)n2c(Nc3ccc4c(c3)OCCO4)c(-c3ccc(Cl)cc3)nc2n1 3.72%, COC(=O)c1cc(S(=O)(=O)N2CCN(c3ccc(OC)cc3)CC2)c[nH]1 -20.8%, CCn1c(=O)c2cc(C(=O)NCCCOC)sc2c2ccccc21 -16.6%, Cc1cc(C)n(-c2nc3ccccc3nc2Nc2ccc(Cl)cc2Cl)n1 -13.6%, COc1ccc(CNC(=O)CCC2N=C3c4ccccc4N=C(SCc4cccc(F)c4)N3C2=O)cc1 (stereo not drawn) 0%
